This passage reports binding signal results from publication PMC9911399, “Two distinct binding modes provide the RNA-binding protein RbFox with extraordinary sequence specificity”.

First the molecules themselves.
B1: UCAUCAU (DNA:RNA)
RNA: GGGAGACCGGAAUUCAGAUUGUCCUCAUCAUUUAAAUCCCGUCGUAGCCACCA
DNA 1: CAATCTGAATTCCGGTCTCCC
DNA 2: TGGTGGCTACGACGGGATT
B2: AGCGGGU (DNA:RNA)
RNA: B1 RNA with U25A, C26G, A27C, U28G, C29G, A30G
DNA 1: CAATCTGAATTCCGGTCTCCC
DNA 2: TGGTGGCTACGACGGGATT
B3: CCACACA (DNA:RNA)
RNA: B1 RNA with U25C, U28C, C29A, A30C, U31A
DNA 1: CAATCTGAATTCCGGTCTCCC
DNA 2: TGGTGGCTACGACGGGATT
B4: ACGGGGA (DNA:RNA)
RNA: B1 RNA with U25A, A27G, U28G, C29G, A30G, U31A
DNA 1: CAATCTGAATTCCGGTCTCCC
DNA 2: TGGTGGCTACGACGGGATT
B5: AACUGAG (DNA:RNA)
RNA: B1 RNA with U25A, C26A, A27C, C29G, U31G
DNA 1: CAATCTGAATTCCGGTCTCCC
DNA 2: TGGTGGCTACGACGGGATT
B6: CUCGCGC (DNA:RNA)
RNA: B1 RNA with U25C, C26U, A27C, U28G, A30G, U31C
DNA 1: CAATCTGAATTCCGGTCTCCC
DNA 2: TGGTGGCTACGACGGGATT
B7: AUCUGGG (DNA:RNA)
RNA: B1 RNA with U25A, C26U, A27C, C29G, A30G, U31G
DNA 1: CAATCTGAATTCCGGTCTCCC
DNA 2: TGGTGGCTACGACGGGATT
B8: AGAGAUC (DNA:RNA)
RNA: B1 RNA with U25A, C26G, U28G, C29A, A30U, U31C
DNA 1: CAATCTGAATTCCGGTCTCCC
DNA 2: TGGTGGCTACGACGGGATT
B9: GGUGGAC (DNA:RNA)
RNA: B1 RNA with U25G, C26G, A27U, U28G, C29G, U31C
DNA 1: CAATCTGAATTCCGGTCTCCC
DNA 2: TGGTGGCTACGACGGGATT
B10: CCAUCAC (DNA:RNA)
RNA: B1 RNA with U25C, U31C
DNA 1: CAATCTGAATTCCGGTCTCCC
DNA 2: TGGTGGCTACGACGGGATT
B11: UCAGACA (DNA:RNA)
RNA: B1 RNA with U28G, C29A, A30C, U31A
DNA 1: CAATCTGAATTCCGGTCTCCC
DNA 2: TGGTGGCTACGACGGGATT
B12: CCUGCUG (DNA:RNA)
RNA: B1 RNA with U25C, A27U, U28G, A30U, U31G
DNA 1: CAATCTGAATTCCGGTCTCCC
DNA 2: TGGTGGCTACGACGGGATT
B13: GCGGGAG (DNA:RNA)
RNA: B1 RNA with U25G, A27G, U28G, C29G, U31G
DNA 1: CAATCTGAATTCCGGTCTCCC
DNA 2: TGGTGGCTACGACGGGATT
B14: AUAGCGU (DNA:RNA)
RNA: B1 RNA with U25A, C26U, U28G, A30G
DNA 1: CAATCTGAATTCCGGTCTCCC
DNA 2: TGGTGGCTACGACGGGATT
B15: UAGGCGC (DNA:RNA)
RNA: B1 RNA with C26A, A27G, U28G, A30G, U31C
DNA 1: CAATCTGAATTCCGGTCTCCC
DNA 2: TGGTGGCTACGACGGGATT
B16: ACGAACU (DNA:RNA)
RNA: B1 RNA with U25A, A27G, U28A, C29A, A30C
DNA 1: CAATCTGAATTCCGGTCTCCC
DNA 2: TGGTGGCTACGACGGGATT
B17: UUAUGGU (DNA:RNA)
RNA: B1 RNA with C26U, C29G, A30G
DNA 1: CAATCTGAATTCCGGTCTCCC
DNA 2: TGGTGGCTACGACGGGATT
B18: CCUCUGA (DNA:RNA)
RNA: B1 RNA with U25C, A27U, U28C, C29U, A30G, U31A
DNA 1: CAATCTGAATTCCGGTCTCCC
DNA 2: TGGTGGCTACGACGGGATT
B19: AAGUUUC (DNA:RNA)
RNA: B1 RNA with U25A, C26A, A27G, C29U, A30U, U31C
DNA 1: CAATCTGAATTCCGGTCTCCC
DNA 2: TGGTGGCTACGACGGGATT
B20: CGAUGUG (DNA:RNA)
RNA: B1 RNA with U25C, C26G, C29G, A30U, U31G
DNA 1: CAATCTGAATTCCGGTCTCCC
DNA 2: TGGTGGCTACGACGGGATT

Residue numbers refer to the chain shown, from its start. This is one part of the list.

For the experiment, the target named is T1, RBFOX1 RRM RbFoxmut (Fox-RRM*) (Homo sapiens, UniProt Q9NWB1 109-208, R118D;E147R;N151S;E152T).
T1 sequence: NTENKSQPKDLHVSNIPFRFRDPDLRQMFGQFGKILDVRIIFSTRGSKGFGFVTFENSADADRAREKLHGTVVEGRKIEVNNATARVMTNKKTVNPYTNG
Nature of the experiment: EMSA; HiTS-Eq, 1 nM pool, 10 min; buffer printed only for the single-RNA assays: 10 mM Tris pH 7.5, 150 mM NaCl, 3.4 mM EDTA, 0.001% NP-40, 30 C. The note with it: tags: His6 N-terminal (pET28a); label: 5' 32P. The method, boiled down:
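Purified RbFox RRM, wild type or mutant, was incubated for 10 min in 50 µL with 1 nM of a 5′-radiolabelled RNA pool carrying 7 randomized nucleotides, whose flanks were annealed to DNA oligonucleotides, over a series of increasing protein concentrations. Unbound RNA was resolved on 8% native PAGE, cut out, reverse-transcribed, barcoded by PCR and sequenced on an Illumina HiSeq 2500. Relative association constants were derived from changes in read counts for each RNA species versus the control reaction and normalised to the cognate motif.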
With B1, the binding signal was 0.0991 KA relative to UGCAUGU.
With B2 the figure was 0.136 KA relative to UGCAUGU; with B3, 0.117 KA relative to UGCAUGU.
On to B4, for which the binding signal was 0.0851 KA relative to UGCAUGU.
Consider B5, for which the binding signal is 0.0628 KA relative to UGCAUGU.
Regarding B6, the binding signal was 0.111 KA relative to UGCAUGU.
As to B7, the binding signal is 0.0633 KA relative to UGCAUGU.
In the case of B8 it was 0.0595 KA relative to UGCAUGU.
In the case of B9, the binding signal is 0.0584 KA relative to UGCAUGU.
In the case of B10 it was 0.0888 KA relative to UGCAUGU; in that of B11, 0.0591 KA relative to UGCAUGU.
With B12, the binding signal was 0.096 KA relative to UGCAUGU.
With B13 the figure was 0.135 KA relative to UGCAUGU; with B14, 0.122 KA relative to UGCAUGU.
In the case of B15 it was 0.0905 KA relative to UGCAUGU.
Consider B16, for which the binding signal was 0.0682 KA relative to UGCAUGU.
With B17, the binding signal is 0.1 KA relative to UGCAUGU.
Turning to B18, the binding signal was 0.126 KA relative to UGCAUGU.
With B19 the figure was 0.0938 KA relative to UGCAUGU; with B20, 0.151 KA relative to UGCAUGU.
